From the supplement of paper PMC8728848
The other results are listed elsewhere or left out.

How the values were obtained:
Test in all cases: glycan array binding signal (z-score within array); higher = stronger binding
Settings in all cases: glycan notation: IUPAC condensed, linker removed
[1] = biological target: GlcNAc(b1-3)Gal(b1-4)GlcNAc(b1-3)Gal(b1-4)GlcNAc(b1-2)Man(a1-3)[GlcNAc(b1-3)Gal(b1-4)GlcNAc(b1-3)Gal(b1-4)GlcNAc(b1-2)Man(a1-6)]Man(b1-4)GlcNAc(b1-4)[Fuc(a1-6)]GlcNAc
Summary of the method: (§1)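 Columns mapping to the same glycan were averaged after glycan names were converted to IUPAC-condensed notation. The data come from 3228 arrays in the Consortium for Functional Glycomics database, limited to those with an available protein sequence. Binding is reported as a within-array Z-score averaged across arrays of one protein sequence and across linkers.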

[2] = biological target: GlcNAc(b1-3)Gal(b1-4)GlcNAc(b1-3)Gal(b1-4)GlcNAc(b1-2)[GlcNAc(b1-3)Gal(b1-4)GlcNAc(b1-3)Gal(b1-4)GlcNAc(b1-6)]Man(a1-6)[GlcNAc(b1-3)Gal(b1-4)GlcNAc(b1-3)Gal(b1-4)GlcNAc(b1-2)Man(a1-3)]Man(b1-4)GlcNAc(b1-4)[Fuc(a1-6)]GlcNAc
Summary of the method: as §1

[3] = biological target: GlcNAc(b1-3)Gal(b1-4)GlcNAc(b1-3)Gal(b1-4)GlcNAc(b1-3)Gal(b1-4)GlcNAc(b1-2)Man(a1-3)[GlcNAc(b1-3)Gal(b1-4)GlcNAc(b1-3)Gal(b1-4)GlcNAc(b1-3)Gal(b1-4)GlcNAc(b1-2)Man(a1-6)]Man(b1-4)GlcNAc(b1-4)GlcNAc
Summary of the method: as §1

[4] = biological target: GlcNAc(b1-3)Gal(b1-4)GlcNAc(b1-3)Gal(b1-4)GlcNAc(b1-3)Gal(b1-4)GlcNAc(b1-2)Man(a1-3)[GlcNAc(b1-3)Gal(b1-4)GlcNAc(b1-3)Gal(b1-4)GlcNAc(b1-3)Gal(b1-4)GlcNAc(b1-2)Man(a1-6)]Man(b1-4)GlcNAc(b1-4)[Fuc(a1-6)]GlcNAc
Summary of the method: as §1

[5] = biological target: GlcNAc(b1-3)Gal(b1-4)GlcNAc(b1-3)Gal(b1-4)GlcNAc(b1-3)Gal(b1-4)GlcNAc(b1-2)[GlcNAc(b1-3)Gal(b1-4)GlcNAc(b1-3)Gal(b1-4)GlcNAc(b1-3)Gal(b1-4)GlcNAc(b1-6)]Man(a1-6)[GlcNAc(b1-3)Gal(b1-4)GlcNAc(b1-3)Gal(b1-4)GlcNAc(b1-3)Gal(b1-4)GlcNAc(b1-2)Man(a1-3)]Man(b1-4)GlcNAc(b1-4)[Fuc(a1-6)]GlcNAc
Summary of the method: as §1

[6] = biological target: GlcNAc(b1-3)Gal(b1-4)GlcNAc(b1-3)Gal(b1-4)GlcNAc(b1-3)Gal(b1-4)GlcNAc(b1-3)Gal(b1-4)GlcNAc(b1-2)Man(a1-3)[GlcNAc(b1-3)Gal(b1-4)GlcNAc(b1-3)Gal(b1-4)GlcNAc(b1-3)Gal(b1-4)GlcNAc(b1-3)Gal(b1-4)GlcNAc(b1-2)Man(a1-6)]Man(b1-4)GlcNAc(b1-4)GlcNAc
Summary of the method: as §1

[7] = biological target: GlcNAc(b1-3)Gal(b1-4)GlcNAc(b1-3)Gal(b1-4)GlcNAc(b1-3)Gal(b1-4)GlcNAc(b1-3)Gal(b1-4)GlcNAc(b1-2)Man(a1-3)[GlcNAc(b1-3)Gal(b1-4)GlcNAc(b1-3)Gal(b1-4)GlcNAc(b1-3)Gal(b1-4)GlcNAc(b1-3)Gal(b1-4)GlcNAc(b1-2)Man(a1-6)]Man(b1-4)GlcNAc(b1-4)[Fuc(a1-6)]GlcNAc
Summary of the method: as §1

[8] = biological target: GlcNAc(b1-3)Gal(b1-4)GlcNAc(b1-3)Gal(b1-4)GlcNAc(b1-3)Gal(b1-4)GlcNAc(b1-3)Gal(b1-4)GlcNAc(b1-2)[GlcNAc(b1-3)Gal(b1-4)GlcNAc(b1-3)Gal(b1-4)GlcNAc(b1-3)Gal(b1-4)GlcNAc(b1-3)Gal(b1-4)GlcNAc(b1-6)]Man(a1-6)[GlcNAc(b1-3)Gal(b1-4)GlcNAc(b1-3)Gal(b1-4)GlcNAc(b1-3)Gal(b1-4)GlcNAc(b1-3)Gal(b1-4)GlcNAc(b1-2)Man(a1-3)]Man(b1-4)GlcNAc(b1-4)[Fuc(a1-6)]GlcNAc
Summary of the method: as §1

[9] = biological target: GlcNAc(b1-3)Gal(b1-4)GlcNAc(b1-3)Gal(b1-4)GlcNAc(b1-3)GalNAc
Summary of the method: as §1

[10] = biological target: GlcNAc(b1-3)Gal(b1-4)GlcNAc(b1-3)GalNAc
Summary of the method: as §1

[11] = biological target: GlcNAc(b1-3)Gal(b1-4)GlcNAc(b1-3)[GlcNAc(b1-3)Gal(b1-4)GlcNAc(b1-3)]GalNAc
Summary of the method: as §1

[12] = biological target: GlcNAc(b1-3)Gal(b1-4)GlcNAc(b1-6)[Gal(b1-3)]GalNAc
Summary of the method: as §1

[13] = biological target: GlcNAc(b1-3)Gal(b1-4)GlcNAc(b1-6)[GlcNAc(b1-3)Gal(b1-3)]GalNAc
Summary of the method: as §1

[14] = biological target: GlcNAc(b1-3)Gal(b1-4)GlcNAc(b1-6)[GlcNAc(b1-3)]Gal(b1-4)GlcNAc
Summary of the method: as §1

GlcNAc(b1-3)GalNAc = biological target: GlcNAc(b1-3)GalNAc
Summary of the method: as §1

GlcNAc(b1-3)Man = biological target: GlcNAc(b1-3)Man
Summary of the method: as §1

[15] = biological target: GlcNAc(b1-3)[GlcNAc(b1-4)][GlcNAc(b1-6)]GlcNAc
Summary of the method: as §1

[16] = biological target: GlcNAc(b1-3)[GlcNAc(b1-6)]Gal(b1-4)GlcNAc
Summary of the method: as §1

[17] = biological target: GlcNAc(b1-3)[GlcNAc(b1-6)]GalNAc
Summary of the method: as §1

[18] = biological target: GlcNAc(b1-4)Gal(b1-4)GlcNAc
Summary of the method: as §1

GlcNAc(b1-4)GlcNAc = biological target: GlcNAc(b1-4)GlcNAc
Summary of the method: as §1

[19] = biological target: GlcNAc(b1-4)GlcNAc(b1-4)GlcNAc
Summary of the method: as §1

[20] = biological target: GlcNAc(b1-4)GlcNAc(b1-4)GlcNAc(b1-4)GlcNAc(b1-4)GlcNAc
Summary of the method: as §1

[21] = biological target: GlcNAc(b1-4)GlcNAc(b1-4)GlcNAc(b1-4)GlcNAc(b1-4)GlcNAc(b1-4)GlcNAc
Summary of the method: as §1

[22] = biological target: GlcNAc(b1-4)[GlcNAc(b1-6)]GalNAc
Summary of the method: as §1

[23] = biological target: GlcNAc(b1-6)Gal(b1-4)GlcNAc
Summary of the method: as §1

GlcNAc(b1-6)GalNAc = biological target: GlcNAc(b1-6)GalNAc
Summary of the method: as §1

[24] = biological target: GlcNAc6S(b1-3)Gal(b1-4)GlcNAc
Summary of the method: as §1

Kdn(a2-3)Gal(b1-3)GalNAc = biological target: Kdn(a2-3)Gal(b1-3)GalNAc
Summary of the method: as §1

Kdn(a2-3)Gal(b1-3)GlcNAc = biological target: Kdn(a2-3)Gal(b1-3)GlcNAc
Summary of the method: as §1

Kdn(a2-3)Gal(b1-4)Glc = biological target: Kdn(a2-3)Gal(b1-4)Glc
Summary of the method: as §1

Kdn(a2-3)Gal(b1-4)GlcNAc = biological target: Kdn(a2-3)Gal(b1-4)GlcNAc
Summary of the method: as §1

[25] = biological target: Kdn(a2-3)Gal(b1-4)[Fuc(a1-3)]GlcNAc
Summary of the method: as §1

Kdn(a2-6)Gal(b1-4)GlcNAc = biological target: Kdn(a2-6)Gal(b1-4)GlcNAc
Summary of the method: as §1

[26] = biological target: Man(a1-2)Man(a1-2)Man(a1-3)Man
Summary of the method: as §1

[27] = biological target: Man(a1-2)Man(a1-2)Man(a1-6)[Man(a1-3)]Man
Summary of the method: as §1

Man(a1-2)Man(a1-3)Man = biological target: Man(a1-2)Man(a1-3)Man
Summary of the method: as §1

[28] = biological target: Man(a1-2)Man(a1-3)[Man(a1-2)Man(a1-6)]Man
Summary of the method: as §1

B1: GS14009A-pdi-495-27-495 (Parabacteroides distasonis) (protein)
chain: FEEVNTDPDSPTDVPTTNLLAYSLYYTSYRLYDRWFAMDEPMTFCGYASKMTYIDESRYNFRTGVQDTNWEYLYRILNNLKDIEKRATFNETPNMLNVSKVMQVHLMQVATDRWRDVPYTDAAKMTDGILQPKYDKQEDIYPGLLATLKEAADGFADGGSDDLGEGDLLFGGDIEKWQRYCNSMRLRLAMRISEVSPALAKETVEEVMGNPTKYPIMESNDDNAFFWWIGTDPNYYEPMADGYRTRKTEYCAADVIVDHMNTREDPRRSSYFQPTKESVEAGEPKYVGYTIGAKANAVASKYSIWGARFFTDLAGFSPYMRVAEPWFCVAEASMLGWNTGISAEDAYNKAVTYSMEENSVSAEDIADYLANAGKFTNDKKQIYYEEWVAMFKQGMEGWSLYRRTGVPDNLYPAPGRPANYSNHNVPPFRSPYPDKERNLNNANCAPFDAEVVDNLWGKQMWWDTRTGVH
How did the “glycan array binding signal (z-score)” value [1] turn out when B1 was run?
The value was -0.494.

And the “glycan array binding signal (z-score)” value [2]?
The value was 2.44.

And the “glycan array binding signal (z-score)” value [3]?
The value was 0.141.

And the “glycan array binding signal (z-score)” value [4]?
The value was 0.061.

And the “glycan array binding signal (z-score)” value [5]?
The value was 0.442.

And the “glycan array binding signal (z-score)” value [6]?
Its value is 0.141.

And the “glycan array binding signal (z-score)” value [7]?
Its value is 0.509.

And the “glycan array binding signal (z-score)” value [8]?
Its value is 0.104.

And the “glycan array binding signal (z-score)” value [9]?
The value was 0.219.

And the “glycan array binding signal (z-score)” value [10]?
Its value is -0.312.

What about the “glycan array binding signal (z-score)” value [11] of the same binder?
The value was 0.309.

What about the “glycan array binding signal (z-score)” value [12] of the same binder?
The value was 0.324.

What about the “glycan array binding signal (z-score)” value [13] of the same binder?
The value was 0.415.

And the “glycan array binding signal (z-score)” value [14]?
The value was -0.022.

And the “glycan array binding signal (z-score)” value (GlcNAc(b1-3)GalNAc)?
The value was -0.78.

What about the “glycan array binding signal (z-score)” value (GlcNAc(b1-3)Man) of the same binder?
The value was 0.188.

And the “glycan array binding signal (z-score)” value [15]?
The value was -0.31.

What about the “glycan array binding signal (z-score)” value [16] of the same binder?
Its value is 0.016.

What about the “glycan array binding signal (z-score)” value [17] of the same binder?
The value was -0.513.

What about the “glycan array binding signal (z-score)” value [18] of the same binder?
Its value is -0.581.

What about the “glycan array binding signal (z-score)” value (GlcNAc(b1-4)GlcNAc) of the same binder?
Its value is -0.5.

What about the “glycan array binding signal (z-score)” value [19] of the same binder?
Its value is -0.116.

What about the “glycan array binding signal (z-score)” value [20] of the same binder?
Its value is -0.453.

What about the “glycan array binding signal (z-score)” value [21] of the same binder?
The value was -0.478.

And the “glycan array binding signal (z-score)” value [22]?
Its value is 0.089.

And the “glycan array binding signal (z-score)” value [23]?
Its value is 0.277.

What about the “glycan array binding signal (z-score)” value (GlcNAc(b1-6)GalNAc) of the same binder?
The value was 0.174.

What about the “glycan array binding signal (z-score)” value [24] of the same binder?
The value was 0.785.

And the “glycan array binding signal (z-score)” value (Kdn(a2-3)Gal(b1-3)GalNAc)?
Its value is -0.451.

And the “glycan array binding signal (z-score)” value (Kdn(a2-3)Gal(b1-3)GlcNAc)?
The value was -0.115.

And the “glycan array binding signal (z-score)” value (Kdn(a2-3)Gal(b1-4)Glc)?
Its value is 0.829.

And the “glycan array binding signal (z-score)” value (Kdn(a2-3)Gal(b1-4)GlcNAc)?
The value was -0.615.

What about the “glycan array binding signal (z-score)” value [25] of the same binder?
The value was 0.379.

What about the “glycan array binding signal (z-score)” value (Kdn(a2-6)Gal(b1-4)GlcNAc) of the same binder?
Its value is -0.168.

And the “glycan array binding signal (z-score)” value [26]?
The value was -0.58.

What about the “glycan array binding signal (z-score)” value [27] of the same binder?
The value was -0.298.

And the “glycan array binding signal (z-score)” value (Man(a1-2)Man(a1-3)Man)?
Its value is -0.63.

And the “glycan array binding signal (z-score)” value [28]?
The value was -0.461.
